Laboratory results from patent US4096112A, “2-Phenyl-indole derivative stabilizers for PVC resins” (Labaz, priority 1976, dated 1978).
Entries with a single value are a further part of the results.

Assay: Thermostability of the stabilizers: differential thermoanalysis
Assay type: physicochemical
Settings: 2° C/minute, 2 mg
Experimental: The thermostability of Stabilizer 2 and that of 2-phenyl-indole were studied by differential thermoanalysis and by thermogravimetric analysis.
Differential thermoanalysis diagrams were drawn up by studying 2 mg samples of material placed in a non-airtight container, the rate of temperature increase being 2° C/minute and sensitivity 4 mcal/sec.
The diagrams were made out for 2-phenyl-indole (i) and Compound 2 (ii) and enabled the following conclusions to be drawn: […]

## c1ccc(-c2cc3ccccc3[nH]2)cc1 [2-phenyl-indole]
Marked sublimation at melting point
  Sublimation temperature: 185-190 °C
Sublimation begins
  Sublimation temperature: 140 °C
